Reference: PubChem BioAssay (NCATS)
Where “and” joins values, the source holds several entries; their conditions need not be identical. Equal entries are not always repeated. Inconclusive means that the source gave no clear call. Such entries were picked first, then a sample of the others. For part of these data: A potency beside an inconclusive call is a rough fit, not a confirmed value. Calls of active or inactive are those of the source. The call rests on the fitted dose curve; in most records, active means well fitted curve in the direction sought with a large enough effect; inconclusive means small, poorly fitted or top-dose-only effect, or another doubt; inactive means no such curve, though single readings can be large; an effect the other way counts as inactive or inconclusive.

Tests used:
[1] = tested on: MCC-13; assay: qHTS assay to identify novel small-molecules to repurpose for Merkel cell carcinoma treatment (AID 1296009); settings: MCC and control cell lines, CellTiter-Glo viability, 72 h; series mostly up to 46 µM; further: nearly all actives have a fitted effect of over 60% in size
Procedure, shortened: (§1)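 CellTiter-Glo luminescence after 72 hr compound exposure at 37 degree celsius gave cell viability. Libraries NPC and MIPE were run as 8- and 11-point dose responses; RLUs normalized to DMSO (negative) and no-cell (cytotoxicity) controls.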

[2] = tested on: MCC-26; assay: as above; settings: MCC and control cell lines, CellTiter-Glo viability, 72 h; series mostly up to 46 µM
Procedure, shortened: as §1

[3] = tested on: MKL-2; assay: as above; settings: MCC and control cell lines, CellTiter-Glo viability, 72 h; series mostly up to 46 µM
Procedure, shortened: as §1

[4] = tested on: UISO; assay: as above; settings: MCC and control cell lines, CellTiter-Glo viability, 72 h; activity change, negative = cytotoxicity: at 46 µM (top of the series) unless noted
Procedure, shortened: as §1

[5] = tested on: WaGa; assay: as above; settings: MCC and control cell lines, CellTiter-Glo viability, 72 h; series mostly up to 46 µM
Procedure, shortened: as §1

[6] = tested on: C33A; assay: Primary qHTS to identify gynecologic anti-cancer compounds using libraries of approved drugs and bioactive compounds (AID 1345084); settings: Gynecologic cancer cell panel viability, ATPlite luminescence, 48 h; series mostly up to 57.5 µM; further: nearly all actives have a fitted effect of over 55% in size
Procedure, shortened: (§2)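 Luminescence from the ATPlite ATP-monitoring reagent indicates viable cell number; lower signal means cytotoxicity. Cells received compound 16 h after seeding and were exposed for 48 h across five concentrations.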

[7] = tested on: CAOV3; assay: as above; settings: Gynecologic cancer cell panel viability, ATPlite luminescence, 48 h; series mostly up to 57.5 µM
Procedure, shortened: as §2

[8] = tested on: CASKI; assay: as above; settings: Gynecologic cancer cell panel viability, ATPlite luminescence, 48 h; series mostly up to 57.5 µM
Procedure, shortened: as §2

[9] = tested on: Es-2; assay: as above; settings: Gynecologic cancer cell panel viability, ATPlite luminescence, 48 h; series mostly up to 57.5 µM
Procedure, shortened: as §2

[10] = tested on: HeLa; assay: as above; settings: Gynecologic cancer cell panel viability, ATPlite luminescence, 48 h; series mostly up to 57.5 µM
Procedure, shortened: as §2

[11] = tested on: Hek293T; assay: as above; settings: Gynecologic cancer cell panel viability, ATPlite luminescence, 48 h, control line for the selectivity index; series mostly up to 57.5 µM
Procedure, shortened: as §2

[12] = tested on: OV90; assay: as above; settings: Gynecologic cancer cell panel viability, ATPlite luminescence, 48 h; series mostly up to 57.5 µM
Procedure, shortened: as §2

[13] = tested on: SC27B; assay: qHTS profiling for inhibitors of Plasmodium falciparum proliferation (AID 504749); further: nearly all actives have a fitted effect of over 60% in size; settings: P. falciparum in erythrocytes, SYBR Green DNA, 72 h; series mostly up to 28.7 µM
Procedure, shortened: (§3)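 SYBR Green fluorescence (ex 485 nm, em 535 nm) reports parasite DNA after 72 h compound exposure of infected red cells at 0.3% parasitemia, 2.5% hematocrit; signal normalized to 0.29 uM artemisinin and vehicle wells.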

[14] = tested on: TAB109; assay: as above; settings: P. falciparum in erythrocytes, SYBR Green DNA, 72 h; series mostly up to 28.7 µM
Procedure, shortened: as §3

[15] = tested on: TAB165; assay: as above; settings: P. falciparum in erythrocytes, SYBR Green DNA, 72 h; series mostly up to 28.7 µM
Procedure, shortened: as §3

[16] = tested on: MKL-1; assay: qHTS assay to identify novel small-molecules to repurpose for Merkel cell carcinoma treatment (AID 1296009); settings: MCC and control cell lines, CellTiter-Glo viability, 72 h; activity change, negative = cytotoxicity: at 46 µM (top of the series) unless noted; further: nearly all actives have a fitted effect of over 60% in size
Procedure, shortened: as §1

[17] = tested on: JEG-3; assay: Primary qHTS to identify gynecologic anti-cancer compounds using libraries of approved drugs and bioactive compounds (AID 1345084); settings: Gynecologic cancer cell panel viability, ATPlite luminescence, 48 h; series mostly up to 57.5 µM; further: nearly all actives have a fitted effect of over 55% in size
Procedure, shortened: as §2

[18] = tested on: PC49; assay: qHTS profiling for inhibitors of Plasmodium falciparum proliferation (AID 504749); further: nearly all actives have a fitted effect of over 60% in size; settings: P. falciparum in erythrocytes, SYBR Green DNA, 72 h; series mostly up to 28.7 µM
Procedure, shortened: as §3

[19] = tested on: W2; assay: as above; settings: P. falciparum in erythrocytes, SYBR Green DNA, 72 h; series mostly up to 28.7 µM
Procedure, shortened: as §3

Measured: Potency
Potency means the concentration at half of the fitted maximal effect; tags describe the fitted curve by direction and shape.

C[C@@H]1O[C@@H](O[C@@H]2C=C3CC[C@@H]4[C@H](CC[C@]5(C)[C@@H](c6ccc(=O)oc6)CC[C@]45O)[C@@]3(C)CC2)[C@H](O)[C@H](O)[C@H]1O
active: [1] 0.0033 µM | [3] 0.0084 µM | [4] 0.0038 µM | [5] 0.0027 µM
inconclusive: [2] 0.0042 µM [inhibitor, full curve, poor fit] | [6] 0.501 µM | [7] 0.1 µM | [8] 0.126 µM | [9] 0.01 µM | [10] 0.1 µM | [11] 0.1 µM | [12] 0.1 µM [cytotoxic, full curve, poor fit]

CCCCCCCCCCCCCCCC[N+](C)(C)C
active: [13] 12.6 µM | [2] 26.6 µM | [16] 944 nM | [7] 8.91 µM | [8] 20 µM
inconclusive: [14] 10 µM [inhibitor, single point] | [15] 11.2 µM [inhibitor, single point] | [1] 26.6 µM [inhibitor, single point] | [6] 35.5 µM [cytotoxic, single point] | [9] 31.6 µM [cytotoxic, single point] | [10] 31.6 µM [cytotoxic, single point] | [11] 8.91 µM [cytotoxic, partial curve, poor fit] | [17] 28.2 µM [cytotoxic, single point] | [12] 39.8 µM [cytotoxic, single point]

C[C@@H]1[C@@H](CC(C[C@H]2O[C@@H]3O[C@]4(C)CC[C@@H]5[C@H](C)CC[C@@H]([C@H]2C)[C@@]35OO4)C[S+](=O)([O-])c2ccc(COC(=O)N(C)C)cc2)O[C@@H]2O[C@]3(C)CC[C@H]4[C@H](C)CC[C@@H]1[C@@]24OO3 (stereo partly drawn)
inconclusive: [1] 2.35 µM [inhibitor, full curve]

CC(C)(C)CC(C)(C)c1ccc(O)cc1
inconclusive: [18] 11.2 µM [inhibitor, single point] | [19] 19 µM [inhibitor, single point] | [1] 19.3 µM [inhibitor, partial curve] | [16] 24.3 µM [inhibitor, partial curve] and 29.9 µM [inhibitor, single point] | [3] 29.9 µM [inhibitor, single point] | [7] 44.7 µM [cytotoxic, single point] | [9] 39.8 µM [cytotoxic, single point] | [10] 89.1 µM [cytotoxic, single point] | [11] 56.2 µM [cytotoxic, single point] | [12] 31.6 µM [cytotoxic, single point]

O=C(Nc1ccncc1)C(=O)c1cn(Cc2ccc(Cl)cc2)c2ccccc12
inconclusive: [1] 0.148 µM [inhibitor, full curve] | [2] 0.148 µM [inhibitor, full curve] | [16] 105 nM [inhibitor, full curve] | [3] 0.0105 µM [inhibitor, full curve] | [4] 0.0296 µM [inhibitor, full curve]

CC=C(C)C(=O)N[C@@H](c1ccccc1)[C@@H](O)C(=O)O[C@H]1C[C@@]2(O)[C@@H](OC(=O)c3ccccc3)[C@@H]3[C@]4(OC(C)=O)CO[C@@H]4C[C@H](O)[C@@]3(C)C(=O)[C@H](OC(C)=O)C(=C1C)C2(C)C
inconclusive: [1] 0.0166 µM [inhibitor, full curve] | [2] 0.0066 µM [inhibitor, full curve]

CO/C=C(/C(=O)OC)c1ccccc1Oc1cc(Oc2ccccc2C#N)ncn1
inconclusive: [1] 17.2 µM [inhibitor, partial curve] | [16] 24300 nM [inhibitor, partial curve] | [4] 10.9 µM [inhibitor, full curve] | [6] 31.6 µM [cytotoxic, partial curve, poor fit] | [7] 50.1 µM [cytotoxic, partial curve, poor fit] | [8] 35.5 µM [cytotoxic, partial curve, poor fit] | [10] 44.7 µM [cytotoxic, single point] | [17] 17.8 µM [cytotoxic, full curve]
active: [3] 13.7 µM | [9] 31.6 µM | [11] 17.8 µM | [12] 17.8 µM

COc1nn(CSP(=S)(OC)OC)c(=O)s1
active: [16] 24300 nM
inactive: [11]
inconclusive: [1] 68.6 µM [inhibitor, single point] | [2] 27.3 µM [inhibitor, partial curve, poor fit] | [5] 61.1 µM [inhibitor, partial curve, poor fit] | [7] 2.24 µM [rising, full curve, poor fit] | [9] 89.1 µM [cytotoxic, single point]
